# Read counts are not given, so values of variants with three or more changes are uncertain.
# B1: CPEB3 Ribozyme (parent)
# chain: UAACAGGGGGCCACAGCAGAAGCGUUCACGUCGCAGCCCCUGUCAGAUUCUGGUGAAUCUGCGAAUUCUGCUGUAUAUCUC
# Variants of: B1
# Experiment: self-cleavage, relative activity (ratio to wild type); higher = more cleavage; in vitro, sequencing
# How it was run: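 Relative activity was defined as the cleaved/total read fraction for a variant divided by the same fraction for the unmutated ribozyme. CPEB3 self-cleaving ribozyme libraries were made by rounds of error-prone PCR, barcoded, and transcribed in vitro with T7 RNA polymerase for 5 hours at 37°C, and cleavage ran through transcription plus a 15 min DNase I step before EDTA. Illumina sequencing of template-switched reverse transcripts gave the reads, and DNA sequencing mapped the barcodes. Averages come from three batches, using variants with at least 5 reads.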
row,Variant,self-cleavage
1,UAACAGGGGGCCUCAGCAGAAGCGUUCGCGUCGCAGCCCCUGUCAGACUCUGGUGAAUCUGCGAAUUCUGCUGUAUAUCUC [A13U A28G U48C],0.25
2,UAACAGGGGGCCUCAGCAGAUGCGUUCACGUCGCAGCCCCUGUCAGAUUCUGGUGAUUCUGCGAAUUCUGCUGUAUAUCUC [A13U A21U A57U],0.21
3,UAACAGGGGGCCUCAGCAGAAGCGUUCGCGUCGCAGCCCCUGUCAGAUUCUGGUGAAUCUGCUAAUUCUGCUGUAUAUCUC [A13U A28G G63U],0.69
4,UAACAGGGGGCCUCAGCAGAAGCGUUCCCGUCGCAGCCCCUGUCGGACUCUGGUGAAUCUGCGGAUUCUGCUGUAUAUCUC [A13U A28C A45G U48C A64G],0.07
5,UAACAGGGGGCCUCAGCAGAGGCGUUCACGUCGCAGCCCCUGCCAGAUUCUGGUGAAUCUGCGAAUUCUGCUGUAUAUCUC [A13U A21G U43C],0.18
6,UAACAGGGGGCCUCAGCAGAAGCGUUCGCGUCGCAGCCCCUGUCCGAUUCUGGUGAAUCUGCGGAUUCUGCUGUACAUCCC [A13U A28G A45C A64G U76C U80C],0.18
7,UAACAGGGGGCCUCAGCAGAGGCGUUCACGUCGCAGCCCCUGUCAGAUUCUGGCGAAUCUGCGAAUACUGCUGUAUAUCUC [A13U A21G U54C U67A],0.09
8,UAACAGGGGGCCUCAGCAGAAGCGUUCGCGUCGCAGCCCCUGUCAGAUUCCGGUGGAUCUGCGAAUUCUGCUGUAUAUCUC [A13U A28G U51C A56G],0.37
9,UAACAGGGGGCCUCAGCAGAUGCGUUCACGUCACAGCCCCUGUCAGAAUCUGGUGAAUCUGCGAAUUCUGCUGUAUAUCUC [A13U A21U G33A U48A],0.16
10,UAACAGGGGGCCUCAGCAGAAGCGUUCGCGUCGCAGCCCCUGUCAGAUUCUGGUGAAUCCGCGAAUUCUGCUGUAUAUCUC [A13U A28G U60C],0.37
11,UAACAGGGGGCCUCAGCAGAGGCGUUCACGUCGCAGCCCCAGACAGAUUCUGGUGAAUCUGCGAAUUCUGCUGUAUAUCUC [A13U A21G U41A U43A],0.18
12,UAACAGGGGGCCUCAGCAGAAGCGUUCCGGUCGCAGCCCCUGUCGGAUUCUGGUGAGUCUGCGAAUUCCGCUGUAUAUCUC [A13U A28C C29G A45G A57G U69C],0.05
13,UAACAGGGGGCCUCAGCAGAGGCGUUCACGUCGCAGCCCCUGUCAGACUCUGGAGGUUCUGCGAAUUCUGCUGUAUAUCUC [A13U A21G U48C U54A A56G A57U],0.06
14,UAACAGGGGGCCUCAGCAGAGGCGUCCACGUCGCAGCCCCUGUCAGGUUCUGGUGAAUCUGCGAAUUCUGCUGUAUUUCUC [A13U A21G U26C A47G A77U],0.06
15,UAACAGGGGGCCUCAGCAGAUGCGUUCACGUCGCAGCCCCUGCCAGAUUCUGGAGAAUCUGCGAAUUCUGCUGUAUAUCUC [A13U A21U U43C U54A],0.2
16,UAACAGGGGGCCUCAGCAGAAGCGUUCCCGUCGCAGCCCCUGUCAAAUUCUGGUGAGUCUGCGAAUUCUGCCGUAUACCUC [A13U A28C G46A A57G U72C U78C],0.03
17,UAACAGGGGGCCUCAGCAGAGGCGUCCACGUCGCAGCCCCUGUCAGAUUCUGGUGAAUCUGCGAAUUCUGCUGUAUAUCUC [A13U A21G U26C],0.21

row,Variant,self-cleavage
1,UAACAGGGGGCCUCAGCAGAGGCGUUCACGUCGCAACCCCUGUCAGAUCCUGGUGAAUCUGCGAAUUCUGCUGUAUAUCUC [A13U A21G G36A U49C],0.06
2,UAACAGGGGGCCUCAGCAGAAGCGUUCGUGUCGCAGCCCCUGUCAGAUUCUGGUGAAUCUGAGAAUUCUGCUGUAUAUCUC [A13U A28G C29U C62A],0.14
3,UAACAGGGGGCCUCAGCAGAAGCGUUCGCGUCGCAGCCCCUGUCAGAUUCUGGUGAAUCUGCGGAUUCUGCUGUACAUCCC [A13U A28G A64G U76C U80C],0.84
4,UAACAGGGGGCCUCAGCAGAUGCGGUCACGUUGCAGCCCCUGUCAGAUUCUGGCGAAUCUGCGAAUUCUGCUGUAUAACCC [A13U A21U U25G C32U U54C U78A U80C],0.08
5,UAACAGGGGGCCUCAGCAGAAGCGUUCGCGUCGCAGCCCCUGUCAGAUUCUGGUGAAACUGCGAAUUCUACUUUAUACCUC [A13U A28G U58A G70A G73U U78C],0.11
6,UAACAGGGGGCCUCAGCAGAUGCGUUCGCGUCGCAGCCCCUGUCAGAUUCUGGUGAAUCUGCGAAUUCUGCUGUAUACCUC [A13U A21U A28G U78C],0.19
7,UAACAGGGGGCCUCAGCAGAAGCGUUCGCGUCGCAGCCCCUGUCAGGUUCUGGUGAAUCUGCGAAUUCUGCUGUAUAUCUC [A13U A28G A47G],0.56
8,UAACAGGGGGCCUCAGCAGAGGCGUCCACGCCGCAGCCCCUGUCAGAUUCUGGUGAAUCAGCGAACUCAGCUGUAUAUCUC [A13U A21G U26C U31C U60A U66C U69A],0.04
9,UAACAGGGGGCCUCAGCAGAAGCGUUCCCGUCGCAGCCCCUGUCAGAUUCUGGUGAAUCUGCGGAUUCUGCUGUAUUUCUC [A13U A28C A64G A77U],0.55
10,UAACAGGGGGCCUCAGCAGAGGCGUUCACGUCGCAGCCCCUGUCAGAUUCGGGUGAAUCUGCGAAUUCUGCUGUAUAUCUC [A13U A21G U51G],0.49
11,UAACAGGGGGCCUCAGCAGAGGCGUUCACAUCGCAGCCCCUGUCAGAUUCUGGUGAAUCUGCGAAUUCUGCUGUAUAUCUC [A13U A21G G30A],0.12
12,UAACAGGGGGCCUCAGCAGAGGCGUACACGUCGCAGCCCCUGUCAGAUUCUGGUGAGUCUGCGAAUUCUGCAGUAUAUCCC [A13U A21G U26A A57G U72A U80C],0.12
13,UAACAGGGGGCCUCAGCAGAUGCGGUCACGUAGCAGCCCCUGUCAGAUUCUGGUGAUUCUGCGAAUUCUGCCGUAUAUCCC [A13U A21U U25G C32A A57U U72C U80C],0.2
14,UAACAGGGGGCCUCAGCAGAGGCGUUCACGUCGCAGCCCCUGUCAGAUUCUGGUGAAUCUGCGAAUUCUGCUGUAUAUCCC [A13U A21G U80C],0.7
15,UAACAGGGGGCCUCAGCAGAGGCGUUCACGUCGCAGCCCCUGUCAGACUCUGGUGAAUCUGCGAAUUCUGCUGUAUAUCUC [A13U A21G U48C],0.36
16,UAACAGGGGGCCUCAGCAGAGGCGUUCACGUCGCAGCCCCAGUCAGAAUCUGGUGAAUCUGCGAAUUCUGCUGUGUAUCUC [A13U A21G U41A U48A A75G],0.05
17,UAACAGGGGGCCUCAGCAGAGGCCUUCACGUCGCAGCCCAUGUCAGAUUCUGGUGAAUCUGCGAAUUCUGCUGUAUAUCUC [A13U A21G G24C C40A],0.04

# Source: the RNAGym collection of RNA variant scans (doi:10.1093/nar/gkz1192)
